89 molecules from article PMC4336329 (PLoS ONE, 2015) can be followed below.

The structures appear in SMILES notation. In all, about 310,000 compounds went through this assay and about 2,200 (0.71%) showed an effect of 50% or more. The effect is printed as a negative number. The list shows a part of the results.

For the assay, the target named is human ether-à-go-go-related gene (hERG) potassium channel (human, UniProt Q12809). Put plainly: primary screen, population patch clamp on CHO cells stably expressing hERG.
Sequence of human ether-à-go-go-related gene (hERG) potassium channel (Q12809 whole entry, looked up): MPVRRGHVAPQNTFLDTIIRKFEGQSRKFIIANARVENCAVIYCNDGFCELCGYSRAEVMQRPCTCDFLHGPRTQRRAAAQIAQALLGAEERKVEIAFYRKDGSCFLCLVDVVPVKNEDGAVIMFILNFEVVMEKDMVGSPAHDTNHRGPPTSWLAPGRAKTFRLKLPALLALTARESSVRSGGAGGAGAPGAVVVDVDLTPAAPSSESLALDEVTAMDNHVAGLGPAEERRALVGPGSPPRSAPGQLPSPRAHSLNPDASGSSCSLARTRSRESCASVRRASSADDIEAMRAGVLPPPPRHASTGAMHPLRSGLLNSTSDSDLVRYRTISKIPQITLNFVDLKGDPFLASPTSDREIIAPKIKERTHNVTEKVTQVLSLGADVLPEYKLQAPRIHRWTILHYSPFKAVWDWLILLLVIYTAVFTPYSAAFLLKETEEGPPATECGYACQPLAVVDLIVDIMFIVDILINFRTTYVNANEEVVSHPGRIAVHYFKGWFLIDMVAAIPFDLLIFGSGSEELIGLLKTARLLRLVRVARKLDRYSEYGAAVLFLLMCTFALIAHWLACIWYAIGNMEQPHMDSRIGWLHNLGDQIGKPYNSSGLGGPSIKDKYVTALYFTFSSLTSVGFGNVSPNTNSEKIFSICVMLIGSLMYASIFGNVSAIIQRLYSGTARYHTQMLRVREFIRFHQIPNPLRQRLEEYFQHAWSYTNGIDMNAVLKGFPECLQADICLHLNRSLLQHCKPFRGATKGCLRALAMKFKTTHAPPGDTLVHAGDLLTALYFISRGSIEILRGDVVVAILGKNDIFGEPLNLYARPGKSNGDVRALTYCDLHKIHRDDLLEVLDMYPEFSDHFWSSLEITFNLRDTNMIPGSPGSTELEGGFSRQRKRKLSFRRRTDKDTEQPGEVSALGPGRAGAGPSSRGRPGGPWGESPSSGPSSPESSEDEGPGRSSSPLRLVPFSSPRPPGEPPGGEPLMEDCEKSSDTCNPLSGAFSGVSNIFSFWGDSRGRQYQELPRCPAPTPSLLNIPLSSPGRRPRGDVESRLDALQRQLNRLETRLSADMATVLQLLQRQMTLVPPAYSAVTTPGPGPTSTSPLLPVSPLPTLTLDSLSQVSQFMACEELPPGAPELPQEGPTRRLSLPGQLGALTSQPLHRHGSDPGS
`O=S(=O)(Nc1c(S(=O)(=O)c2ccccc2)c2nc3ccccc3nc2n1C1CCCCC1)c1ccccc1`: the “hERG current change (%, negative = inhibition) at 1uM” value is listed as 1.17%.
Then `S=C1NCN(Cc2cccnc2)CN1`, with 14%; and `CC(=O)c1ccccc1OC(=O)COc1ccc(Cl)cc1C`, with 13%.
With `CCO.CSc1sc(C)cc1C1C(C#N)=C(N)N(c2cccnc2)C2=C1C(=O)CC(C)(C)C2` (centres unmarked), the “hERG current change (%, negative = inhibition) at 1uM” value is on record as -4.33%.
On to `COc1cccc(-c2nnc(SCC(=O)Nc3ccc(S(N)(=O)=O)cc3)n2C)c1`, for which the “hERG current change (%, negative = inhibition) at 1uM” value is listed as -2.58%.
Consider `O=C(CN(Cc1ccccc1Cl)C(=O)CNS(=O)(=O)c1ccc(F)cc1)NCC1CCCO1` (centres unmarked), for which the “hERG current change (%, negative = inhibition) at 1uM” value was determined as 10.3%.
As to `Cc1ccc(S(=O)(=O)NCC(=O)OCC(=O)NCc2ccc(F)cc2)cc1`, the “hERG current change (%, negative = inhibition) at 1uM” value is 10.3%.
Then `CCOc1cc(/C=N/NC(=O)C(=O)NCC2CCCO2)ccc1OCC(=O)N1CCOCC1` (centres unmarked), with -0.555%.
For the molecule `Cc1cc(C)n2c(nc3ccccc32)c1C(=O)NN`, the “hERG current change (%, negative = inhibition) at 1uM” value is 7.47%.
Take `CCOC(=O)CSc1ncc(OC)c(Sc2ccc(Cl)cc2)n1`: the “hERG current change (%, negative = inhibition) at 1uM” value worked out at 9.53%.
For `CCNS(=O)(=O)c1ccc(NC(=O)c2cncc(Br)c2)cc1`, the “hERG current change (%, negative = inhibition) at 1uM” value came out at 12%.
For the molecule `COc1ccc([C@H]2CC(=O)C=C(c3cccc(CO)c3)C2)cc1OC`, the “hERG current change (%, negative = inhibition) at 1uM” value is listed as -18.9%.
With `COC(=O)c1ccccc1C(=O)N1CC(O)CO1` (centres unmarked), the “hERG current change (%, negative = inhibition) at 1uM” value amounted to 7.4%.
As to `Cc1cc(C)c2nc(N3CCC(C(=O)NCCCN4CC(C)CC(C)C4)CC3)sc2c1` (centres unmarked), the “hERG current change (%, negative = inhibition) at 1uM” value was -32.6%.
For `CC(C)[C@H](NC(=O)[C@@H]1CSC2c3ccccc3C(=O)N21)C(=O)N1CCCCC1` (some centres unmarked), the “hERG current change (%, negative = inhibition) at 1uM” value was found to be 8.78%.
Consider `CCOC(=O)CSCC(=O)Nc1nnc(-c2cccc([N+](=O)[O-])c2)s1`, for which the “hERG current change (%, negative = inhibition) at 1uM” value was -1.37%.
For `Cc1occc(=O)c1OCc1ccccc1`, the “hERG current change (%, negative = inhibition) at 1uM” value turned out to be 8.23%.
In the case of `CCCNC(=O)C(CC)NS(=O)(=O)c1ccc(OC)cc1` (centres unmarked), the “hERG current change (%, negative = inhibition) at 1uM” value is reported as 16.1%.
Take `CCOc1ccc(CCNC(=O)CSc2nn(-c3ccc(C)c(Cl)c3)c(=S)s2)cc1OCC`: the “hERG current change (%, negative = inhibition) at 1uM” value is on record as 9.09%.
Consider `COc1ccc(NC(=O)CSc2nc(-c3ccncc3)nn2CC(=O)N2CCCC2)cc1`, for which the “hERG current change (%, negative = inhibition) at 1uM” value turned out to be 7.64%.
`Nc1c(NCCc2ccccc2)c2ccccc2oc1=O`: the “hERG current change (%, negative = inhibition) at 1uM” value was found to be 11.4%.
As to `COc1ccccc1Cn1c(CCCO)nc2ccccc21`, the “hERG current change (%, negative = inhibition) at 1uM” value turned out to be 1.69%.
Under `O=S(=O)(Nc1cccc(-n2cnnn2)c1)c1ccc(Cl)cc1` stands 16.2%.
As for `COc1cc2ccccc2cc1C(=O)OCC(=O)N1CCOCC1`, the “hERG current change (%, negative = inhibition) at 1uM” value turned out to be 13.6%.
As to `COc1cc(/C=C2\C(=N)N3N=C(S(=O)(=O)CC(C)C)SC3=NC2=O)ccc1OC(=O)c1ccco1`, the “hERG current change (%, negative = inhibition) at 1uM” value was found to be 18.3%.
Turning to `CC(C)OCCCNC(=O)c1ccc(NC(=O)C2CCCO2)cc1` (centres unmarked), the “hERG current change (%, negative = inhibition) at 1uM” value was 4%.
With `CCN1CCN(Cc2ccc(NC(=O)c3ccc(C)c(NC(=O)C4=NN(c5ccccc5)C(=O)C4)c3)cc2C(F)(F)F)CC1`, the “hERG current change (%, negative = inhibition) at 1uM” value amounted to 8.97%.
Take `CC(C)NC(=O)Cn1cc(C(=O)c2ccccc2)c2ccccc21`: the “hERG current change (%, negative = inhibition) at 1uM” value worked out at 15.5%.
Turning to `Cc1ccc(NC(=S)NC2CCN(Cc3ccccc3)CC2)cc1C`, the “hERG current change (%, negative = inhibition) at 1uM” value came out at 5.07%.
For `CSC1=NCCN1C(=O)c1ccc(Br)o1`, the “hERG current change (%, negative = inhibition) at 1uM” value is 8.83%.
Take `COCCn1nnnc1SCC(=O)c1ccc(F)cc1`: the “hERG current change (%, negative = inhibition) at 1uM” value amounted to 11.2%.
Under `O=Cc1c(N2CCCCC2)nc2ccccn2c1=O` stands 12.5%; under `CCCCC1CCC(/C(N)=N/O)CC1` (centres unmarked), 9.78%.
As for `COc1ccc2nc(N3C(=O)/C(=C/c4ccccc4)NC3=S)sc2c1`, the “hERG current change (%, negative = inhibition) at 1uM” value is recorded as -0.531%.
Consider `CCOC(=O)c1cn2nc(Oc3cccc(C(F)(F)F)c3)ccc2n1`, for which the “hERG current change (%, negative = inhibition) at 1uM” value is 10.5%.
On to `Cc1noc(NS(=O)(=O)c2ccc(NC(=O)NC(C)(C(F)(F)F)C(F)(F)F)cc2)c1C`, for which the “hERG current change (%, negative = inhibition) at 1uM” value was 10.8%.
As to `O=C(NC1CCCCC1)C1CCCN(S(=O)(=O)c2cccc3cccnc23)C1` (centres unmarked), the “hERG current change (%, negative = inhibition) at 1uM” value is -0.44%.
Then `O=C1CC(C(=O)O)S/C(=N\NC(=O)c2ccccc2)N1` (centres unmarked), with 9.19%; and `COc1ccc(N2C(=O)/C(=C/c3ccc(C)o3)C(=O)NC2=S)c(OC)c1`, with 12.6%.
Turning to `Cc1cc(SCn2nnc3ccccc3c2=O)nc2ccccc12`, the “hERG current change (%, negative = inhibition) at 1uM” value was 9.54%.
As for `Cc1cc2ncn(CC3CC3(Cl)Cl)c2cc1C` (centres unmarked), the “hERG current change (%, negative = inhibition) at 1uM” value is given as 11.9%.
In the case of `CCOc1c(N2CCCCC2)c(=O)c1=O`, the “hERG current change (%, negative = inhibition) at 1uM” value is on record as 12.2%.
Then `Cc1ccc2c(c1)N(CC(=O)N1CCCCC1)C(=O)C(C)O2` (centres unmarked), with 14.6%; and `CCOC(=O)Cc1csc(NC(=O)CSc2nnc(-c3ccncc3)o2)n1`, with 15.4%.
As to `O=C(O)C#Cc1cccc2ccccc12`, the “hERG current change (%, negative = inhibition) at 1uM” value is given as 16.3%.
With `CCn1c(SCC(=O)O)nnc1-c1cccnc1`, the “hERG current change (%, negative = inhibition) at 1uM” value worked out at 10.6%.
On to `O=C(O)c1ccc2c(c1)C(=O)N(c1cccc(-c3nc4ccccc4s3)c1)C2=O`, for which the “hERG current change (%, negative = inhibition) at 1uM” value worked out at 8.68%.
As to `CCOc1cc(/C=N\NC(=O)c2ccc(NC(=O)C(C)(C)C)cc2)ccc1OC(=O)c1ccc(C)cc1`, the “hERG current change (%, negative = inhibition) at 1uM” value is given as 6.6%.
Then `Cc1cc(=O)[nH]c2c(C)c(N)ccc12`, with 11.9%; and `CC(C)NC(=O)C1=NN(c2ccccc2)C(=O)CC1`, with 13.6%.
Turning to `Cc1cc(C(=O)CSc2n[nH]c(N)n2)c(C)n1-c1cccc(F)c1`, the “hERG current change (%, negative = inhibition) at 1uM” value was 1.37%.
As to `COc1ccc(C(=O)[C@H]2[C@H]3C(=O)N(c4ccccc4)C(=O)[C@H]3C3C=CC=NN32)cc1` (some centres unmarked), the “hERG current change (%, negative = inhibition) at 1uM” value is listed as 13.3%.
Then `CCN(CC)c1ccc(-c2n[nH]c(=S)n2-c2ccccc2C)cc1`, with 9.01%; and `COc1ccccc1N(C(=O)c1ccco1)C(C(=O)NC1CCCCC1)c1cc(OC)c(OC)c(OC)c1` (centres unmarked), with 10.2%.
In the case of `Cc1ccc(NC(=O)CCC(=O)OCC(=O)c2ccc(Oc3ccc([N+](=O)[O-])cc3)cc2)cc1`, the “hERG current change (%, negative = inhibition) at 1uM” value is 11%.
Under `O=C(CN(Cc1ccc(F)cc1)S(=O)(=O)c1ccccc1)N1CCCCC1` stands -6.32%; under `O=C(NCc1cccnc1)Nc1ccc(Br)cc1Cl`, 14.2%.
`CCOc1nc(-c2ccccc2O)nc2ccccc12`: the “hERG current change (%, negative = inhibition) at 1uM” value was 8.03%.
In the case of `CCCCN(C)CCCNC(=O)CC1Oc2ccccc2NC1=O` (centres unmarked), the “hERG current change (%, negative = inhibition) at 1uM” value was -4.45%.
Then `CC(C)(C)NC(=O)C(c1ccncc1)N(C(=O)CNC(=O)c1ccco1)c1ccc2c(c1)OCO2` (centres unmarked), with 8.54%; and `CCC(C)c1ccccc1NC(=O)c1[nH]c(C)c(C(C)=O)c1C` (centres unmarked), with 5.85%; and `Cc1nnc(SCC(=O)Nc2nnc(SCc3cccc(Br)c3)s2)s1`, with 5.79%.
As to `COCCCN=C1NN=C(c2cc(C)n(-c3ccccc3F)c2C)CS1`, the “hERG current change (%, negative = inhibition) at 1uM” value is on record as -3.62%.
Turning to `COc1ccc(Br)cc1C(=O)Nc1ccccc1-c1ccccc1`, the “hERG current change (%, negative = inhibition) at 1uM” value is given as -0.0436%.
On to `C=CCc1cccc2cc(C(=O)N(CC)CC)c(=O)oc12`, for which the “hERG current change (%, negative = inhibition) at 1uM” value came out at 0.254%.
Turning to `C=CCOC(=O)C1=C(C)NC(=S)C(C#N)(CC=C)C1c1ccccc1Cl` (centres unmarked), the “hERG current change (%, negative = inhibition) at 1uM” value came out at 11.2%.
Take `Nc1nc(N)c(N=O)c(OCC2CCCCC2)n1`: the “hERG current change (%, negative = inhibition) at 1uM” value stood at 15.4%.
For `N#Cc1c(NC(=S)NC(=O)c2ccccc2)sc2c1CCC2`, the “hERG current change (%, negative = inhibition) at 1uM” value is listed as 5.9%.
As to `O=C1CC(Sc2ccc(Cl)cc2)C(=O)N1Cc1ccncc1` (centres unmarked), the “hERG current change (%, negative = inhibition) at 1uM” value is on record as 3.72%.
For the molecule `C/C(=N/NC(=O)c1cc(-c2ccccc2)nc2c(Cl)cccc12)c1cccnc1`, the “hERG current change (%, negative = inhibition) at 1uM” value amounted to 16%.
In the case of `COC(=O)c1ccc(/C=N/Nc2nc(N3CCCCC3)nc(N3CCCCC3)n2)cc1`, the “hERG current change (%, negative = inhibition) at 1uM” value was 6.02%.
With `COCc1cc(N2CCN(c3ccccc3F)CC2)nc(-c2ccccc2)n1`, the “hERG current change (%, negative = inhibition) at 1uM” value is reported as 12.1%.
With `COc1cccc(OCCNc2cc(N3CCCCC3)ccc2[N+](=O)[O-])c1`, the “hERG current change (%, negative = inhibition) at 1uM” value was 12.6%.
Under `C=CCNC(=O)c1onc(CSc2ccc(C)c(C)c2)c1C(=O)O` stands 10.1%; under `Cc1ccc(OCCOCCNC(C)C)c(Br)c1.O=C(O)C(=O)O`, 2.67%.
Under `COc1ccc2c(c1)c1nnc(SCC(=O)NC3CC3)nc1n2C` stands 10.8%.
Consider `CN1C(=O)/C(=C/c2ccc(OCc3ccc(F)cc3)cc2)NC1=S`, for which the “hERG current change (%, negative = inhibition) at 1uM” value amounted to 20.7%.
As for `COc1ccc(C2=Nn3c(nnc3C3CCCCC3)SC2)cc1OC`, the “hERG current change (%, negative = inhibition) at 1uM” value was -1.87%.
On to `N#Cc1c(-c2ccccc2)cc2nc3ccccc3n2c1N`, for which the “hERG current change (%, negative = inhibition) at 1uM” value is on record as 12.5%.
Regarding `CC(=O)c1ccc(NC(=O)C2CCCN(S(=O)(=O)c3c(C)[nH]c(=O)[nH]c3=O)C2)cc1` (centres unmarked), the “hERG current change (%, negative = inhibition) at 1uM” value is listed as 17.2%.
Then `CCOC(=O)c1ccc(NC(=O)CCOc2ccc(C)cc2)cc1`, with 9.9%.
For `COC(=O)c1ccc(NC(=S)NN2CCOCC2)cc1`, the “hERG current change (%, negative = inhibition) at 1uM” value was -12.8%.
Then `C=CCC(CC(O)COCCC)C(=O)NNC(=S)Nc1ccccc1` (centres unmarked), with 17.1%; and `Cc1ccc(-c2c(C(=O)N/N=C/c3ccc4c(c3)OCO4)nnn2-c2nonc2N)cc1`, with 15.1%.
As for `COC(=O)c1cc(NC(=O)c2ccc([N+](=O)[O-])cc2)c(=O)oc1C`, the “hERG current change (%, negative = inhibition) at 1uM” value is listed as 7.17%.
Then `COc1ccc(/C(C)=N/Nc2nc3ccccc3nc2C)cc1OC`, with 7.64%; and `COc1ccc(-c2noc(N3CCC(C(=O)Nc4ccccc4OC)CC3)n2)cc1`, with 0.853%.
On to `CCc1ccccc1NC(=O)CCC(=O)Nc1nnc(C(C)C)s1`, for which the “hERG current change (%, negative = inhibition) at 1uM” value came to 19.1%.
Take `CCN1C(=O)C(CC(=O)Nc2ccc(F)cc2)N(Cc2ccco2)C1=S` (centres unmarked): the “hERG current change (%, negative = inhibition) at 1uM” value is on record as -0.542%.
